The other results are listed elsewhere or left out.
B1: chr14:23097777:23097878:+|CDS|ENSG00000179933|msi1|total|mutant (ssRNA)
RNA: GGGAGUUCUACAGUCCGACGAUCGAUGAAGUGUAUUCUUCACUGGUUUGCCAAUUGGUCAGGUCCCCAGCGUGAACGUUUCCCCGAGGACCUGGCCGCUAAGGCAGUGCCAGAAAAAUUACAACCACUGCUGGACCGUCUGGACAACAGAGGAUUGAGCAUCA
B2: chr8:35759345:35759454:+|CDS|ENSG00000156687|unk|FALSE|unique (ssRNA)
RNA: GGGAGUUCUACAGUCCGACGAUCCAUCAAGGUGGACAGCUCCUGGAAGAACCAAAAUUGCUGCAUUUCAAAGGGAAUACCUUUAGUCUUCAGAUUUCUGUCCUUGAUAUUCCCCCAUUCCUCUGGAGAAUUAAACCAUUCACUCAACAGAGGAUUGAGCAUCA
B3: chr2:86144366:86144519:-|CDS|ENSG00000132305|unk|total|mutant (ssRNA)
RNA: GGGAGUUCUACAGUCCGACGAUCAAACACAUUUAAAUUACUGUCAUAUGCUUCCUAUUGCAUUGAGCAUGGUGAUCUGGAGCCCGCAGCAAAGUUUGUCAAUCAGCUGAAGGGGGAAUCCAGACGAGUGGCACAGGACUGGCUCAACAGAGGAUUGAGCAUCA
B4: chrX:23682378:23682503:+|CDS|ENSG00000123131|unk|total|mutant (ssRNA)
RNA: GGGAGUUCUACAGUCCGACGAUCUUCAUUAUUGAUGACAAAGGAAUCCUAAGACAAAUUACUCUGAAUGAUCUUCCUGUGGGCCGAUCAGUGGAUGAGACACUACGUUUGGUUCAAGCAUUCCAGUACACUGACAAACACGGACAACAGAGGAUUGAGCAUCA
B5: ENSG00000058668:stop:overlap|stop_codon|ENSG00000058668|stop_codon|NA|stop_codon (ssRNA)
RNA: GGGAGUUCUACAGUCCGACGAUCCUUCUGUUCCUGCUGUUUCAUCUCCUCCUAUGGGCAAUCAAAGUGGUCAAAGCGUUCCAUAGUUCCCUCCACGAAAGCAUUCAGAAACCCUACAACCAAAAGUCCAUCCACAGCUUCAUGCAACAGAGGAUUGAGCAUCA
B6: chr14:73713276:73713377:-|CDS|ENSG00000176903|unk|total|mutant (ssRNA)
RNA: GGGAGUUCUACAGUCCGACGAUCGGGCAAAGGAGGGGUCUGGAAAGUGUUAUUUAAGCCCCCAACUUCUGAUGCUGAAUUUUCCGAAAGAUUGCACCUCUUCCCCGCCCGAGAGGGGUGGACCGUGCAAGAUGUUGCCCGUGUCAACAGAGGAUUGAGCAUCA
B7: ENSG00000107863:be:win_3401|CDS|ENSG00000107863|bound_else_gene|NA|bound_elsewhere_windowed (ssRNA)
RNA: GGGAGUUCUACAGUCCGACGAUCCAUUUGAGAAAAAGCCAACUGCUACAGGAACUUUCGGCGUCCGACUAGAUGACUGCCCACCAGCUCAUACUAAUCGGUAUAUUCCAUUAAUAGUUGACAUAUGUUGCAAAUUAGUUGAAGCAACAGAGGAUUGAGCAUCA
B8: chr1:206903316:206905147:-|three_prime_utr|ENSG00000162894|control|control|control (ssRNA)
RNA: GGGAGUUCUACAGUCCGACGAUCUCUGUGCCCUGAGCAUGGCUCUGCCCCCAGGUCGUCUUGCACACCUUGGCAGCCCCCUGUAGUUGACAGGUAAGCUGUAGGCAUGUAGAGCAAUUGUCCCAAUGCCACUUGCUUCCUUUCCAACAGAGGAUUGAGCAUCA
B9: ENSG00000164535:stop:overlap|stop_codon|ENSG00000164535|stop_codon|NA|stop_codon (ssRNA)
RNA: GGGAGUUCUACAGUCCGACGAUCGCAGUACAGGGACUUCAUCCACGUCAGCUUCCAUGACAAGGUUUACGAGCUGCCGUUUUUAGUGGCUCUGGAUCACAGGAAAGAGUCUGUUGUGGUCGCUGUGAGGGGGACCAUGUCUCUCAACAGAGGAUUGAGCAUCA
B10: chr5:6669452:6669553:+|3pUTR|ENSG00000145545|unk|FALSE|unique (ssRNA)
RNA: GGGAGUUCUACAGUCCGACGAUCCAUCUCAUCUGGAGUUUUUAAAUGCCAUUUGUUUCAGUUGUCUUUAACAACAUAAUAAAUAGACUUUGCCAUUUAACAAGGUAGCUCAAAUUCUUUUACUAAUUGUUACAUCGAAACAUUCAACAGAGGAUUGAGCAUCA
B11: ENSG00000107863:be:win_2251|CDS|ENSG00000107863|bound_else_gene|NA|bound_elsewhere_windowed (ssRNA)
RNA: GGGAGUUCUACAGUCCGACGAUCUUAAGGCAUCAGUCUUACAUCUUGGCAGUAAAUGACCAGGAGACCGGGUCAGACACUACCUGCUGGCUGCCCAAUGAUGCACGUCGAGAGGUCCACAUAAAAAGAAUGGAGGAAAGAAAACAACAGAGGAUUGAGCAUCA
B12: chr2:223975255:223975490:-|3pUTR|ENSG00000135919|msi1|total|mutant (ssRNA)
RNA: GGGAGUUCUACAGUCCGACGAUCUUUAAAUUCUUUUCCCCCAUCCCCCUCCAAAGUCUUGACCGCAAGCGUUAUUUUGGUGGCCGAAACGGUGAAAUCUCCCGCCUCUUUGUGUUUUUGUUGUUGUUGUUGUUGUUGUUUUAUCAACAGAGGAUUGAGCAUCA
B13: chr2:130338606:130338707:-|3pUTR|ENSG00000136710|unk|total|mutant (ssRNA)
RNA: GGGAGUUCUACAGUCCGACGAUCUACUCAGCCAAAAGAUCAGGACAAUAUGACUUGAGUCCACAAGGACACAAACACCUGAGCCGCUGGGCAGCCCUUGGCAGGGUCUAAGCCAGGAAGUAAAAAUGAUCUGGCCCCGAUAUUCAACAGAGGAUUGAGCAUCA
B14: chr1:71070866:71070979:-|CDS|ENSG00000132485|unk|total|mutant (ssRNA)
RNA: GGGAGUUCUACAGUCCGACGAUCGAGGAUGAAGAUGACGCUGAUCUCUCAAAAUAUAAUCUUGAUGCCAGUGAAGAAGAAGACCGUAAUAAAAAGAAAUCUAACCGACGAAGUCGCUCAAAGUCUCGAUCUUCACAUUCACGACAACAGAGGAUUGAGCAUCA
B15: chr6:15520333:15520434:+|3pUTR|ENSG00000008083|unk|total|mutant (ssRNA)
RNA: GGGAGUUCUACAGUCCGACGAUCCUUGCUGCCGGAUUCAAGCUGUCUUUGCACCCGCUCUAAAGAAGAUUUUCUUCUGGUUUCCGAGAACUAAUUUUGUUUCCGCAUUAAACUGUUGAACUUUUUUUUGUACUCCGAAAACCUCAACAGAGGAUUGAGCAUCA
B16: chr7:56058368:56058516:+|CDS|ENSG00000146731|unk|total|mutant (ssRNA)
RNA: GGGAGUUCUACAGUCCGACGAUCUACAAGAGUGCAGAAGAGAGAGAAAAACUCGUGAAAGCUGAAAGAAAAUUCAUUGAAGACCGGGUUAAAAAAAUAACCGAACUGAAAAGGAAAGUCUGUGGCGAUUCAGAUAAAGGAUUUCAACAGAGGAUUGAGCAUCA
B17: chr13:99866285:99866388:+|CDS|ENSG00000125246|unk|total|mutant (ssRNA)
RNA: GGGAGUUCUACAGUCCGACGAUCUAUUCUCUACGCCCGGCAAAAGAUUGUUGUCACCGCGAAAGCCUUUGGUCUCCAAGCCACCGAUCUGGUGUACAUUGACUUUCGAGAUGGAGCUGGGCUGCUCCGACAGUCACGAGAAGGCAACAGAGGAUUGAGCAUCA
B18: chr16:84129640:84129741:-|CDS|ENSG00000103160|unk|total|mutant (ssRNA)
RNA: GGGAGUUCUACAGUCCGACGAUCCUUGCAAUAUGAAUAUGCCUCUAAAGGAAUCUUUGUACAGAGUCUAAUCCCUUUCUAUGCCGCCACCAGCAUGACAGCACCCAGCAACUUUCUGCACAGGUGCUCGUGGUUGGUGCCUUCCAACAGAGGAUUGAGCAUCA
B19: chr19:42297191:42297292:-|CDS|ENSG00000079462|unk|total|mutant (ssRNA)
RNA: GGGAGUUCUACAGUCCGACGAUCCCGACAGGUGAACGAGCUGGUACGGGCGGCACUGGCUGGCCACCCUCGGGCCCACUUCCCCGAUGCCGACCCUGGCUUUGUGCACUCAGAUGGCACCAUCAGCCAUCAUGACAUGUAUGACAACAGAGGAUUGAGCAUCA
B20: chr7:39987650:39987751:+|CDS|ENSG00000065883|unk|FALSE|unique (ssRNA)
RNA: GGGAGUUCUACAGUCCGACGAUCUCUAGGCAUUCAAGAUCUCGUAGCAGGCACAGAUUGUCUAGAUCCAGAAGUCGUCAUUCUAGUAUUUCUCCUAGCACACUAACUCUGAAGAGUAGCCUGGCAGCUGAAUUGAACAAGAAUCAACAGAGGAUUGAGCAUCA
B21: chr1:48532853:48534172:-|three_prime_utr|ENSG00000186094|control|control|control (ssRNA)
RNA: GGGAGUUCUACAGUCCGACGAUCGUCUUAUGGGGACAGGAGCAUGCAUUUUCUGCUGGGGAAUGAAAUUAAUCACUCUUCUCUAGCUUCCAAGGAUUUGUGGAUUAAUGCAUAGGCUAGUGAAAGGGAAGGGAUACAAUGAGACAACAGAGGAUUGAGCAUCA
B22: ENSG00000182446:stop:overlap|stop_codon|ENSG00000182446|stop_codon|NA|stop_codon (ssRNA)
RNA: GGGAGUUCUACAGUCCGACGAUCGCACGUUCAUGAACCAGCCAGGCACAGGCCACUGCGAGAUGUGCAGCCUCCCCAGGACCUAGGGCGCCUGCCCUCUGCUGGCUAGGACCGGGCCCAGCCCAGCCCUUCCUGAAGCCAGAACAACAGAGGAUUGAGCAUCA

Each binder was assayed against MSI1 full-length (mouse, UniProt Q61474 1-362) (assay: nsRBNS (natural sequence RNA bind-n-seq); RBNS binding buffer (assumed for nsRBNS): 25 mM Tris pH 7.5, 150 mM KCl, 3 mM MgCl2, 0.01% Triton X-100, 500 ug/ml BSA, 20 U/ml SUPERase-In, 4 C; UNK is unkempt and MSI1 is Musashi-1; names of the RNAs are library labels; protein concentration not given here; high values mean tight binding).
Chain of UniProt Q61474 (Q61474 whole entry): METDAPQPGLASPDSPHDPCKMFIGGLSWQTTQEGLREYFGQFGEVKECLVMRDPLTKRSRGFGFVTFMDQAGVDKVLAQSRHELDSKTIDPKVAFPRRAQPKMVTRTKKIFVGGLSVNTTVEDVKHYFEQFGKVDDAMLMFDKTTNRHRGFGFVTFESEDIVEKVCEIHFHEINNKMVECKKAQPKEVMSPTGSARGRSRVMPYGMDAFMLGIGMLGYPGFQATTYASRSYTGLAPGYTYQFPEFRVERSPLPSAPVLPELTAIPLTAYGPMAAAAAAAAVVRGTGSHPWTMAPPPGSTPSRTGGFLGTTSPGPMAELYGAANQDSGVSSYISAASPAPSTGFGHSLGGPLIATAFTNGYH

Binder	binding signal
B1	0.253 enrichment R
B2	0.287 enrichment R
B3	0.304 enrichment R
B4	0.272 enrichment R
B5	0.403 enrichment R
B6	0.592 enrichment R
B7	1.03 enrichment R
B8	0.397 enrichment R
B9	0.207 enrichment R
B10	0.669 enrichment R
B11	0.484 enrichment R
B12	2.04 enrichment R
B13	0.337 enrichment R
B14	0.372 enrichment R
B15	0.382 enrichment R
B16	0.292 enrichment R
B17	0.244 enrichment R
B18	0.286 enrichment R
B19	0.284 enrichment R
B20	0.357 enrichment R
B21	0.726 enrichment R
B22	0.246 enrichment R

From publication PMC12136788
